Reference: patent publication US12138316B2, “Anti-B7H3 antibody-drug conjugate and use thereof” (Duality Biologics (Suzhou) Co., Ltd., priority 2023, dated 2024)

Experiments:
[1] = Thermal stability (Tm) determined by DSF; assay type: physicochemical; settings: Tm1
Description: Tm (melting temperature) of each antibody was investigated using QuantStudio® 7 Flex real-time PCR system (Applied Biosystems). 19 μL of the antibody solution in Example 1.2 was mixed with 1 μL of SYPRO Orange solution (Invitrogen) and transferred to a 96-well plate (Applied Biosystems). The plate was sealed with an optical adhesive film (Applied Biosystems) and centrifuged at 3,000 rpm for 5 min to remove any air bubbles. The plate was heated from 26° C. to 95° C. at a rate of 0.9° C./min, and the resulting fluorescence data were collected. The negative derivatives of the fluorescence changes with respect to different temperatures were calculated, and the maximum value was defined as the melting temperature Tm. If a protein has multiple unfolding transitions, the first Tm were reported and designated Tm1. Data collection and Tm calculation were performed automatically by QuantStudio® real-time PCR software (v1.3).

[2] = pI (summary of analysis data); assay type: physicochemical
[3] = target: T1, human B7H3 (Homo sapiens, UniProt Q5ZPR3); test: FACS binding to human B7H3-expressing cells MCF-7
T1 construct: MCF-7 cells expressing human full-length B7H3; host or cells: MCF-7
T1 sequence (Q5ZPR3 29-534): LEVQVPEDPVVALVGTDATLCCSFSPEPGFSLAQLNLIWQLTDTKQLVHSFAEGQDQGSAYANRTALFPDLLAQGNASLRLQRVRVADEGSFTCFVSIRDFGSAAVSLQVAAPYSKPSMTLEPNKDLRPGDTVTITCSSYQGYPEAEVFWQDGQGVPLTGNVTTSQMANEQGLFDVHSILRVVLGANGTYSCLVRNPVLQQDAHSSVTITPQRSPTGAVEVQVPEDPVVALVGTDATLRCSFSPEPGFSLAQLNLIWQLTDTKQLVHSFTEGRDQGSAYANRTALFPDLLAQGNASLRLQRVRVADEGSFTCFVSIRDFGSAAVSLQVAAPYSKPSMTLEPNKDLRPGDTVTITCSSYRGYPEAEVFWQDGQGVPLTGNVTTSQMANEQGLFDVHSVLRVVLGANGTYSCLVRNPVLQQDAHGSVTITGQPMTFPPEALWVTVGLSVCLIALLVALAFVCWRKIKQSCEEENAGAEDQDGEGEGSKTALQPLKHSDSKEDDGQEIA
Description: (§1) FACS was used to detect the binding of antibodies to human B7H3. This method allows quantitative analysis and identification of specific molecules expressed on the surface of living cells. Unlabeled cells were used as a control to set a threshold before the assay, and the percentage change for each group that exceeded the fluorescence intensity threshold was analyzed. MCF-7 cells expressing human full-length B7H3 (1×10^5 cells/well) were incubated with various concentrations of antibodies (3.16-fold serially diluted with 1×DPBS/1% BSA from 50 nM to 0.0005 nM) in a volume of 100 μL/well in a refrigerator set to 4° C. for 1 h. Anti-human B7H3 reference antibody enoblituzumab (MacroGeneics) was used as a positive control. Human IgG1 isotype antibody was used as a negative control. After washing the cells with 1×DPBS/1% BSA, Alexa 647 goat anti-human antibody (diluted in a 1:500 ratio in 1×DPBS/1% BSA) was added. The cells were incubated in a refrigerator set to 4° C. for 0.5 h in the dark. The mean fluorescence intensity (MFI) of the cells was measured by a flow cytometry and analyzed by FlowJo. EC50 values were calculated by four-parameter non-linear regression analysis using GraphPad Prism 7 software.

[4] = tested on: cynomolgus monkey B7H3; test: FACS binding to cynomolgus monkey B7H3-transfected stable cell pool
Description: as §1, with “to cynomolgus monkey” for “to human”, “B7H3. FlpinCHO” for “B7H3. This method allows quantitative analysis and identification of specific molecules expressed on the surface of living cells. Unlabeled”, “were transfected with cynomolgus monkey B7H3 (W3XX088-FlpinCHO.cProl.pool) (1×10^5 cells/well),” for “were used as a control to set a threshold before the assay,”, “the transfected” for “the percentage change for each group that exceeded the fluorescence intensity threshold was analyzed. MCF-7”, “cells” for “cells expressing human full-length B7H3 (1×10^5 cells/well)”

[5] = target: T2, human 4IgB7H3 (Homo sapiens, UniProt Q5ZPR3); test: Binding affinity for human 4IgB7H3 (SPR)
T2 construct: Uniprot ID: Q5ZPR3, amino acids 29-461; made in house; host or cells: Expi293F
T2 sequence (Q5ZPR3 29-461): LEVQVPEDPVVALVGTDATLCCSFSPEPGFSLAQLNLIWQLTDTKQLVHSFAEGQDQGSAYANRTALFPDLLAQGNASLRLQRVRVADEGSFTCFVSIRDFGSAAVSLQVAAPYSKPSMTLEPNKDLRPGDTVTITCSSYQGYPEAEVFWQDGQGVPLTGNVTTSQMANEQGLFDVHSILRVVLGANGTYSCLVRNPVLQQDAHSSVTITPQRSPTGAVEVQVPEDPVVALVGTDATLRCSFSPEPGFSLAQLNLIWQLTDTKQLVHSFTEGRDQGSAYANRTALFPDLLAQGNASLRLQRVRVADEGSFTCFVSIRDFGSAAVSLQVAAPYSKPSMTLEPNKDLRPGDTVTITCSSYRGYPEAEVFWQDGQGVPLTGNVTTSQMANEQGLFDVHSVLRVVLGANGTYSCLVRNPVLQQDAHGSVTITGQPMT
Description: (§2) The affinity of antibodies for human 4IgB7H3 was determined using surface plasmon resonance (SPR). The affinity of antibodies for human 4IgB7H3 was determined by Biacore 8K. An activator was prepared by mixing 400 mM EDC and 100 mM NHS (GE) immediately prior to injection into the channel. The CM5 sensor chip was activated for 420 seconds with the activator. Goat anti-human Fc IgG (30 μg/mL in 10 mM NaAc, pH 4.5) was then injected into the channel at a flow rate of 10 μL/min for 420 seconds. The chip was deactivated by 1 M ethanolamine hydrochloric acid. The antibodies diluted in running buffer (1×HBS-EP+) were injected into the channel at a flow rate of 10 μL/min for 30 seconds. Seven concentrations (100 nM, 50 nM, 25 nM, 12.5 nM, 6.25 nM, 2.125 nM, and 1.563 nM) of analyte human 4IgB7H3 were injected sequentially into the channel at a flow rate of 30 μL/min for an association phase of 180 seconds, followed by dissociation of 3600 seconds. Glycine (10 mM, pH 1.5) was injected as regeneration buffer after the dissociation phase.
(§3) The sensorgrams for the reference channel and the buffer channel were subtracted from the test sensorgrams. The experimental data were fitted with a 1:1 binding model. The molecular weight of the human 4IgB7H3 used in the calculation was 47.8 kDa.

[6] = target: T3, human 2IgB7H3 (Homo sapiens, UniProt Q5ZPR3); test: Binding affinity for human 2IgB7H3 (SPR)
T3 construct: His tag; purchased ACROBiosystems B73-H52E2
T3 sequence (Q5ZPR3 29-316 isoform Q5ZPR3-2 limits assumed): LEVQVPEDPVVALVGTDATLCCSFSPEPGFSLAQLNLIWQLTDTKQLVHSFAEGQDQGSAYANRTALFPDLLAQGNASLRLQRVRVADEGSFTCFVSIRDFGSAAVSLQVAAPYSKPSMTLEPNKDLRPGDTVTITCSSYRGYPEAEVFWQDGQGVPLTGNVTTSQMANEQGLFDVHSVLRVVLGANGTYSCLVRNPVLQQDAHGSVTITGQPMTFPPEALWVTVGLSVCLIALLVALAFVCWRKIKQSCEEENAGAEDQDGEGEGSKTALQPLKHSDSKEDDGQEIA
Description: The affinity of antibodies for human 2IgB7H3 was determined using surface plasmon resonance (SPR). The affinity of antibodies for human 2IgB7H3 was determined by Biacore 8K. An activator was prepared by mixing 400 mM EDC and 100 mM NHS (GE) immediately prior to injection into the channel. The CM5 sensor chip was activated for 420 seconds with the activator. Goat anti-human Fc IgG (30 μg/mL in 10 mM NaAc, pH 4.5) was then injected into the channel at a flow rate of 10 μL/min for 420 seconds. The chip was deactivated by 1 M ethanolamine hydrochloric acid. The antibodies diluted in running buffer (1×HBS-EP+) were injected into the channel at a flow rate of 10 μL/min for 30 seconds. Seven concentrations (500 nM, 250 nM, 125 nM, 62.5 nM, 31.25 nM, 15.625 nM, and 7.813 nM) of analyte human 2IgB7H3 were injected sequentially into the channel at a flow rate of 30 μL/min for an association phase of 120 seconds, followed by dissociation of 300 seconds. Glycine (10 mM, pH 1.5) was injected as regeneration buffer after the dissociation phase.
The sensorgrams for the reference channel and the buffer channel were subtracted from the test sensorgrams. The experimental data were fitted with a 1:1 binding model. The molecular weight of the human 2IgB7H3 used in the calculation was 25.2 kDa.

[7] = tested on: cynomolgus monkey B7H3; test: Binding affinity for cynomolgus monkey B7H3 (SPR)
Description: as §2, with “cynomolgus monkey B7H3” for “human 4IgB7H3”, “Seven concentrations (100 nM, 50 nM, 25 nM, 12.5 nM, 6.25 nM, 2.125 nM, and 1.563 nM) of analyte human 4IgB7H3 were injected sequentially into the channel at a flow rate of 30 μL/min for an association phase of 180 seconds, followed by dissociation of 3600 seconds.” left out
as §3, with “data for 6 analyte concentrations (50 nM, 25 nM, 12.5 nM, 6.25 nM, 3.125 nM, and 1.563 nM)” for “data”, “cynomolgus monkey B7H3” for “human 4IgB7H3”, “49” for “47.8”

[8] = tested on: human B7H3-expressing cells MCF-7; test: Internalization test (HCS) in MCF-7 cells; assay type: cell-based
Description: Antibody internalization was determined by operetta CLS (PerkinElmer), a high-content imaging and analysis system that can collect and analyze images of samples at high speed and high sensitivity. MCF-7 cells expressing human full-length B7H3 (1.5×10^4 cells/well) were seeded into a 96-well clear bottom black plate pre-coated with 8 μg/mL poly-D-lysine. After incubation in an incubator set to 37° C., 5% CO2 overnight, various concentrations of the antibodies (3.16-fold serially diluted with 1×DPBS/1% BSA from 50 nM to 0.0005 nM) were incubated in a volume of 100 μL/well in a refrigerator set to 4° C. for 2 h. Anti-human B7H3 reference antibody enoblituzumab (MacroGeneics) was used as a positive control. Human IgG1 isotype antibody was used as a negative control. After washing the cells with 1×DPBS/1% BSA, Alexa 647 goat anti-human antibody (diluted in a 1:500 ratio in 1×DPBS/1% BSA) was added. The cells were incubated in a refrigerator set to 4° C. for 1 h in the dark. The cells were then washed once and resuspended in 1×DPBS/1% BSA at 37° C. for 2 h. […] The mean fluorescence intensity (MFI) of the cells was measured and analyzed by operetta CLS. EC50 values were calculated by four-parameter non-linear regression analysis using GraphPad Prism 7 software.

B1: W301088-1.145.16-z3-p1-uIgG1KV320: humanized anti-B7H3 IgG1 antibody, heavy chain SEQ ID NO: 12, light chain SEQ ID NO: 13 (antibody)
heavy: QVQLQESGPGLVKPSQTLSLTCTVTDYSITGDYAWNWIRQHPGKGLEWIGYISYSGSTSYNPSLQSRVTISRDTSKNQFSLKLSSVTAADTAVYFCARSLGRRWYFVVWGQGTTVTVSSASTKGPSVFPLAPSSKSTSGGTAALGCLVKDYFPEPVTVSWNSGALTSGVHTFPAVLQSSGLYSLSSVVTVPSSSLGTQTYICNVNHKPSNTKVDKRV[not shown - human IgG1 Fc with changes]
light: DIVMTQSPDSLAVSLGERATINCKSSQSLLQSSNQKNYLAWYQQKPGQPPKLLIYFASTRESGVPDRFSGSGSGTDFTLTISSLQAEDVAVYYCQQHYSAPWTFGGGTKVEIKRTVAAPSVFIFPPSDEQLKSGTASVVCLLNNFYPREAKVQWKVDNALQSGNSQESVTEQDSKDSTYSLSSTLTLSKADYEKHKVYACEVTHQGLSSPVTKSFNRGEC
Which results are given for B1?
Tm (° C.) [1]: 70.1 °C; pI [2]: 8.54; Maximum MFI [3]: 19900; Maximum MFI [4]: 63600; ka [5]: 657000 M⁻¹ s⁻¹; kd (dissociation rate constant) [5]: 4.65e-05 s⁻¹; ka [6]: 303000 M⁻¹ s⁻¹; kd (dissociation rate constant) [6]: 0.0141 s⁻¹; ka [7]: 527000 M⁻¹ s⁻¹; kd (dissociation rate constant) [7]: 3.02e-05 s⁻¹; Antibody internalization Maximum MFI [8]: 52315
